# Reference: the supplement of paper PMC8728848
# The other results are listed elsewhere or left out.
# B1: StcE (Escherichia coli), O82882.2 (protein)
# chain: ADNNSAIYFNTSQPINDLQGSLAAEVKFAQSQILPAHPKEGDSQPHLTSLRKSLLLVRPVKADDKTPVQVEARDDNNKILGTLTLYPPSSLPDTIYHLDGVPEGGIDFTPHNGTKKIINTVAEVNKLSDASGSSIHSHLTNNALVEIHTANGRWVRDIYLPQGPDLEGKMVRFVSSAGYSSTVFYGDRKVTLSVGNTLLFKYVNGQWFRSGELENNRITYAQHIWSAELPAHWIVPGLNLVIKQGNLSGRLNDIKIGAPGELLLHTIDIGMLTTPRDRFDFAKDKEAHREYFQTIPVSRMIVNNYAPLHLKEVMLPTGELLTDMDPGNGGWHSGTMRQRIGKELVSHGIDNANYGLNSTAGLGENSHPYVVAQLAAHNSRGNYANGIQVHGGSGGGGIVTLDSTLGNEFSHEVGHNYGLGHYVDGFKGSVHRSAENNNSTWGWDGDKKRFIPNFYPSQTNEKSCLNNQCQEPFDGHKFGFDAMAGGSPFSAANRFTMYTPNSSAIIQRFFENKAVFDSRSSTGFSKWNADTQEMEPYEHTIDRAEQITASVNELSESKMAELMAEYAVVKVHMWNGNWTRNIYIPTASADNRGSILTINHEAGYNSYLFINGDEKVVSQGYKKSFVSDGQFWKERDVVDTREARKPEQFGVPVTTLVGYYDPEGTLSSYIYPAMYGAYGFTYSDDSQNLSDNDCQLQVDTKEGQLRFRLANHRANNTVMNKFHINVPTESQPTQATLVCNNKILDTKSLTPAPEGLTYTVNGQALPAKENEGCIVSVNSGKRYCLPVGQRSGYSLPDWIVGQEVYVDSGAKAKVLLSDWDNLSYNRIGEFVGNVNPADMKKVKAWNGQYLDFSKPRSMRVVYK
# Experiments:
# Assay in all cases: glycan array binding signal (z-score within array); higher = stronger binding
# Conditions in all cases: glycan notation: IUPAC condensed, linker removed
# [1] = molecular target: Gal3S(b1-4)GlcNAc
# Outline: (§1)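 Glycan array binding is given as a within-array Z-score, which can be read as non-binding when negative. The arrays, 3228 of them, came from the Consortium for Functional Glycomics database and were retained only where the protein sequence was available. Z-scores were averaged across arrays of the same protein sequence at different concentrations or buffers and across linkers.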
# [2] = molecular target: Gal3S(b1-4)GlcNAc6S
# Outline: as §1
# [3] = molecular target: Gal3S(b1-4)[Fuc(a1-3)]Glc
# Outline: as §1
# [4] = molecular target: Gal3S(b1-4)[Fuc(a1-3)]Glc6S
# Outline: as §1
# [5] = molecular target: Gal3S4S(b1-4)GlcNAc
# Outline: as §1
# [6] = molecular target: Gal3S6S(b1-4)GlcNAc
# Outline: as §1
# [7] = molecular target: Gal3S6S(b1-4)GlcNAc6S
# Outline: as §1
# [8] = molecular target: Gal4S(b1-4)GlcNAc
# Outline: as §1
# [9] = molecular target: Gal4S6S(b1-4)GlcNAc
# Outline: as §1
# [10] = molecular target: Gal6P(b1-4)GlcNAc
# Outline: as §1
# [11] = molecular target: Gal6S(b1-3)GlcNAc
# Outline: as §1
# [12] = molecular target: Gal6S(b1-3)GlcNAc6S
# Outline: as §1
# [13] = molecular target: Gal6S(b1-4)Glc
# Outline: as §1
# [14] = molecular target: Gal6S(b1-4)Glc6S
# Outline: as §1
# [15] = molecular target: Gal6S(b1-4)GlcNAc
# Outline: as §1
# [16] = molecular target: Gal6S(b1-4)GlcNAc6S
# Outline: as §1
# [17] = molecular target: GalNAc(a1-3)Gal
# Outline: as §1
# [18] = molecular target: GalNAc(a1-3)GalNAc
# Outline: as §1
# [19] = molecular target: GalNAc(a1-3)GalNAc(b1-3)Gal(a1-4)Gal(b1-4)Glc
# Outline: as §1
# [20] = molecular target: GalNAc(a1-3)GalNAc(b1-3)Gal(a1-4)Gal(b1-4)GlcNAc
# Outline: as §1
# [21] = molecular target: GalNAc(b1-3)Gal
# Outline: as §1
# [22] = molecular target: GalNAc(b1-3)Gal(a1-4)Gal(b1-4)GlcNAc
# Outline: as §1
# [23] = molecular target: GalNAc(b1-3)Gal(a1-4)Gal(b1-4)GlcNAc(b1-3)Gal(b1-4)Glc
# Outline: as §1
# [24] = molecular target: GalNAc(b1-3)Gal(a1-6)Gal(b1-4)Glc
# Outline: as §1
# [25] = molecular target: GalNAc(b1-3)GalNAc
# Outline: as §1
# [26] = molecular target: GalNAc(b1-4)Gal(b1-4)Glc
# Outline: as §1
# [27] = molecular target: GalNAc(b1-4)GlcNAc
# Outline: as §1
# [28] = molecular target: GalNAc(b1-4)GlcNAc(b1-2)Man(a1-3)[GalNAc(b1-4)GlcNAc(b1-2)Man(a1-6)]Man(b1-4)GlcNAc(b1-4)GlcNAc
# Outline: as §1
# [29] = molecular target: GalNAc(b1-4)GlcNAc6S
# Outline: as §1
# [30] = molecular target: GalNAc(b1-6)GalNAc
# Outline: as §1
binder,measurement,setting,value
B1,glycan array binding signal (z-score),[1],-0.229
same,glycan array binding signal (z-score),[2],-0.14
same,glycan array binding signal (z-score),[3],-0.157
same,glycan array binding signal (z-score),[4],-0.153
same,glycan array binding signal (z-score),[5],-0.136
same,glycan array binding signal (z-score),[6],-0.175
same,glycan array binding signal (z-score),[7],-0.152
same,glycan array binding signal (z-score),[8],-0.309
same,glycan array binding signal (z-score),[9],-0.123
same,glycan array binding signal (z-score),[10],-0.14
same,glycan array binding signal (z-score),[11],-0.163
same,glycan array binding signal (z-score),[12],-0.169
same,glycan array binding signal (z-score),[13],0.013
same,glycan array binding signal (z-score),[14],0.95
same,glycan array binding signal (z-score),[15],-0.156
same,glycan array binding signal (z-score),[16],-0.14
same,glycan array binding signal (z-score),[17],-0.244
same,glycan array binding signal (z-score),[18],-0.221
same,glycan array binding signal (z-score),[19],-0.141
same,glycan array binding signal (z-score),[20],-0.136
same,glycan array binding signal (z-score),[21],-0.184
same,glycan array binding signal (z-score),[22],-0.152
same,glycan array binding signal (z-score),[23],-0.155
same,glycan array binding signal (z-score),[24],-0.162
same,glycan array binding signal (z-score),[25],-0.265
same,glycan array binding signal (z-score),[26],-0.176
same,glycan array binding signal (z-score),[27],0.006
same,glycan array binding signal (z-score),[28],-0.149
same,glycan array binding signal (z-score),[29],-0.168
same,glycan array binding signal (z-score),[30],-0.141
